Experimental data reported in the supplement of paper PMC6206098.
± gives the uncertainty stated by the source. Shown are siRNA guide strands that differ only in the seed, positions 2 to 7.

Tests used:
[1] = system: 3LL; test: cell viability relative to siNT1 control; higher = less toxic; conditions: concentration: 10 nM; 96 h; Mus musculus;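 further: Luminescence-based viability of cells reverse transfected in 384-well plates with lipid-complexed siRNAs built on a non-toxic 19mer backbone whose passenger strand carries 2′-O-methyl groups at positions 1 and 2, triplicates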
Method: (§1)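 Arrayed screen of 4096 siRNA duplexes, each carrying one of all possible 6mer seeds at guide-strand positions 2-7 in a fixed neutral 19mer scaffold (constant flanks: U at position 1, then ACAUGUAAACCA, plus a 3' AA overhang). The passenger strand is 2'-O-methylated at positions 1-2 so only the guide strand loads into RISC. Duplexes were reverse-transfected at 10 nM with RNAiMAX in triplicate in 384-well plates; viability was read by CellTiter-Glo ATP content 96 h after transfection. Values are % viability normalised to lipid-only wells (HeyA8, H460, M565) or to siNT1 (3LL).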

[2] = system: HeyA8; test: cell viability relative to lipid-only control; HeyA8 human ovarian and H460 human lung cancer; M565 mouse liver and 3LL mouse lung cancer; siNT1 is a non-toxic control siRNA; higher = less toxic; conditions: concentration: 10 nM; 96 h; Homo sapiens
Method: as §1

[3] = system: H460; test: as above; conditions: concentration: 10 nM; 96 h; Homo sapiens
Method: as §1

[4] = system: M565; test: as above; conditions: concentration: 10 nM; 96 h; Mus musculus
Method: as §1
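Wherever cell viability relative to lipid-only control is given: reverse lipid transfection in 384-well plates, in triplicate, of duplexes on a non-toxic 19mer backbone with passenger strand 2′-O-methylated at positions 1 and 2, luminescence viability read-out.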

Row | Sequence | cell viability [1] | cell viability [2] | cell viability [3] | cell viability [4]
1 | UUCAACAACAUGUAAACCAAA | 60.6 ± 6.8% | 75.7 ± 15% | 73 ± 14% | 64.8 ± 13%
2 | UACCACCACAUGUAAACCAAA | 17.8 ± 7.3% | 29.8 ± 10% | 34.6 ± 4.1% | 7.05 ± 0.82%
3 | UAAACCUACAUGUAAACCAAA | 86.1 ± 3% | 68.7 ± 10% | 72.5 ± 8.2% | 85.8 ± 14%
4 | UCAUUAUACAUGUAAACCAAA | 94.7 ± 10% | 71.5 ± 4.8% | 54.4 ± 3.4% | 56.9 ± 8.6%
5 | UGUAUAUACAUGUAAACCAAA | 79.6 ± 8% | 71.3 ± 6.7% | 63.8 ± 8.1% | 62.9 ± 2.6%
6 | UUAAAGAACAUGUAAACCAAA | 96.7 ± 10% | 93.9 ± 2.3% | 72.8 ± 9.6% | 80.6 ± 18%
7 | UUUGUAGACAUGUAAACCAAA | 103 ± 7.3% | 88.3 ± 3.8% | 81.7 ± 8% | 75.2 ± 13%
8 | UGGCAUCACAUGUAAACCAAA | 43 ± 3.8% | 7.18 ± 5.3% | 25.6 ± 4.7% | 30.2 ± 2.3%
9 | UAAUCUAACAUGUAAACCAAA | 123 ± 7.4% | 107 ± 6.4% | 113 ± 18% | 89.6 ± 19%
10 | UCAAACUACAUGUAAACCAAA | 84.6 ± 12% | 69 ± 2.5% | 47.5 ± 6.4% | 80.9 ± 6%
11 | UGUGCAAACAUGUAAACCAAA | 86.7 ± 4.7% | 91.8 ± 23% | 75.1 ± 1.9% | 66.2 ± 19%
12 | UGCAUCAACAUGUAAACCAAA | 81.9 ± 14% | 60.5 ± 6.2% | 75.9 ± 7.3% | 65.4 ± 1.9%
13 | UUCCGCAACAUGUAAACCAAA | 87.5 ± 24% | 91.1 ± 2.8% | 88.3 ± 6.3% | 67.4 ± 6.5%
14 | UAUCUAGACAUGUAAACCAAA | 111 ± 11% | 89.8 ± 2.4% | 38.4 ± 2.8% | 89.3 ± 14%
15 | UUGGACCACAUGUAAACCAAA | 15.1 ± 3.8% | 72 ± 8.6% | 64.6 ± 3.3% | 15.4 ± 5.2%
16 | UAAGAAGACAUGUAAACCAAA | 86.1 ± 12% | 94 ± 6.6% | 61.7 ± 4.2% | 76.1 ± 2.7%
17 | UGUGGGAACAUGUAAACCAAA | 15.9 ± 3.6% | 16.4 ± 1.5% | 28.5 ± 0.71% | 36.2 ± 5.7%
18 | UUGGUUCACAUGUAAACCAAA | 92.3 ± 13% | 80.1 ± 15% | 73.1 ± 3.9% | 88.3 ± 18%
19 | UAGGGUGACAUGUAAACCAAA | 81.2 ± 13% | 64.82 ± 0.64% | 61.5 ± 4.7% | 27.6 ± 5.9%

Row | Sequence | cell viability [1] | cell viability [2] | cell viability [3] | cell viability [4]
20 | UCCUAACACAUGUAAACCAAA | 78.1 ± 14% | 76.7 ± 6.3% | 70.9 ± 3.6% | 80.9 ± 5%
21 | UAAGACUACAUGUAAACCAAA | 74.4 ± 7.4% | 67 ± 4.2% | 78.8 ± 13% | 43.1 ± 6.2%
22 | UAAACCAACAUGUAAACCAAA | 80 ± 9.4% | 82.8 ± 16% | 62.8 ± 4.1% | 86.8 ± 9.1%
23 | UCCGUUUACAUGUAAACCAAA | 75.4 ± 17% | 61.7 ± 6.4% | 63.3 ± 7.1% | 80.6 ± 17%
24 | UGCGCAAACAUGUAAACCAAA | 89.4 ± 13% | 84 ± 1.8% | 86.8 ± 21% | 95.5 ± 4.1%
25 | UAUAUCGACAUGUAAACCAAA | 99 ± 14% | 98.7 ± 9.7% | 71.7 ± 14% | 74.8 ± 8.1%
26 | UGAUUGGACAUGUAAACCAAA | 28.1 ± 6% | 40.8 ± 5.4% | 46.8 ± 6.8% | 47.2 ± 6.3%
27 | UCCUCUGACAUGUAAACCAAA | 88.9 ± 14% | 89.8 ± 4.8% | 63.3 ± 11% | 64.1 ± 10%
28 | UUGCGAGACAUGUAAACCAAA | 60.1 ± 9.5% | 97.1 ± 7.4% | 94.7 ± 12% | 62.4 ± 11%
29 | UUGCGGUACAUGUAAACCAAA | 65.2 ± 7.8% | 53.2 ± 1.9% | 42.1 ± 2.1% | 12.7 ± 5.3%
30 | UAGAAACACAUGUAAACCAAA | 53.2 ± 5.5% | 65.7 ± 3.5% | 63.1 ± 4.9% | 68 ± 9.6%
31 | UUAACGCACAUGUAAACCAAA | 39.4 ± 4.9% | 90 ± 6.8% | 81.4 ± 7% | 37.4 ± 5.2%
32 | UGCCUUCACAUGUAAACCAAA | 6.1 ± 0.98% | 6.89 ± 0.63% | 24.6 ± 3.8% | 32.6 ± 11%
33 | UUUUCCCACAUGUAAACCAAA | 50.9 ± 3.7% | 53.3 ± 5.4% | 60.5 ± 5% | 56.8 ± 12%
34 | UGACUGAACAUGUAAACCAAA | 50.3 ± 12% | 40 ± 2.3% | 46.4 ± 5% | 58.6 ± 6.7%
35 | UUACCAUACAUGUAAACCAAA | 65.4 ± 4.1% | 67.9 ± 2.1% | 44.3 ± 4.3% | 78.1 ± 15%
36 | UCAGCCGACAUGUAAACCAAA | 77.3 ± 20% | 89.2 ± 9% | 44.4 ± 5.2% | 50.3 ± 9%
37 | UCGCGCCACAUGUAAACCAAA | 74.5 ± 18% | 22.6 ± 2.5% | 49.3 ± 3% | 41.5 ± 6.1%
38 | UGGGCCUACAUGUAAACCAAA | 26.5 ± 5.2% | 3.05 ± 0.19% | 16.1 ± 3.8% | 11.8 ± 2%

Row | Sequence | cell viability [1] | cell viability [2] | cell viability [3] | cell viability [4]
39 | UGACUAGACAUGUAAACCAAA | 58.8 ± 9.3% | 53.8 ± 3.6% | 40.4 ± 5.6% | 25.2 ± 5%
40 | UAACACUACAUGUAAACCAAA | 63.2 ± 10% | 61.6 ± 5.4% | 54.5 ± 3.9% | 69.7 ± 6.2%
41 | UGGAGUCACAUGUAAACCAAA | 13.3 ± 3.7% | 11.1 ± 1% | 27.1 ± 5% | 15.9 ± 2.3%
42 | UCCUGCAACAUGUAAACCAAA | 88.7 ± 17% | 68.7 ± 7.8% | 68.5 ± 5.2% | 81.3 ± 13%
43 | UUUGUCUACAUGUAAACCAAA | 91.3 ± 9.3% | 69.8 ± 6.8% | 77.9 ± 1.3% | 78.4 ± 8.3%
44 | UAAUGUUACAUGUAAACCAAA | 65.7 ± 5.8% | 93.7 ± 7.8% | 75.2 ± 7.7% | 59.5 ± 18%
45 | UCGACUCACAUGUAAACCAAA | 74.9 ± 21% | 85.2 ± 5.9% | 63.3 ± 3% | 16.5 ± 2.2%
46 | UAGAGUCACAUGUAAACCAAA | 41.1 ± 2.3% | 30.7 ± 1.6% | 36.5 ± 8.6% | 55.2 ± 10%
47 | UAGCGCGACAUGUAAACCAAA | 85.9 ± 7.4% | 61.9 ± 3.8% | 65.6 ± 4.7% | 41.5 ± 5.2%
48 | UUACCUGACAUGUAAACCAAA | 83.2 ± 10% | 91.3 ± 6.1% | 69.6 ± 10% | 81.8 ± 4.1%
49 | UCCGGUAACAUGUAAACCAAA | 103 ± 32% | 79 ± 2.4% | 67.1 ± 12% | 69.1 ± 16%
50 | UCCAUGAACAUGUAAACCAAA | 90.8 ± 28% | 87.6 ± 12% | 60.1 ± 7% | 89.3 ± 17%
51 | UUGGGGUACAUGUAAACCAAA | 17.4 ± 9.4% | 22.2 ± 0.81% | 43.4 ± 1.7% | 28.8 ± 8.7%
52 | UAGAACGACAUGUAAACCAAA | 86.6 ± 9.4% | 86.5 ± 9.2% | 68 ± 7.8% | 75.7 ± 8.2%
53 | UACUCCCACAUGUAAACCAAA | 45.2 ± 4.2% | 22.6 ± 1.9% | 62.7 ± 5.7% | 54.6 ± 13%
54 | UACUGUUACAUGUAAACCAAA | 49 ± 1.6% | 80.8 ± 10% | 74.8 ± 9.1% | 25.1 ± 5.3%
55 | UCAAUGUACAUGUAAACCAAA | 75.5 ± 19% | 62.6 ± 6.1% | 64.9 ± 2.2% | 43.6 ± 6.6%
56 | UCACCUUACAUGUAAACCAAA | 104 ± 14% | 74.6 ± 6.1% | 55.2 ± 4.8% | 98.9 ± 7.2%
57 | UUAAAGCACAUGUAAACCAAA | 48 ± 5.5% | 36.9 ± 4.2% | 30.1 ± 6.3% | 43.8 ± 5.3%
